# Out of some 350,000 compounds screened, about 31,000 (8.9%) were called active. The inconclusive results got no clear call from the source; some entries with a clear call stand among them for comparison. Calls follow the shape of the dose curve; as a rule, active = well fitted inhibition curve with a large enough effect; inconclusive = small, poorly fitted or top-dose-only effect; inactive = no such curve, though single readings can be large or run the other way. Where the call is inconclusive, the potency comes from a doubtful curve fit.
# Target: Histone-lysine N-methyltransferase EHMT2 (Homo sapiens) (UniProt Q96KQ7)
# Assay: qHTS Assay for Inhibitors of Histone Lysine Methyltransferase G9a; also: nearly all actives have a fitted effect of over 75% in size
# Conditions: G9a H3K9 monomethylation, AlphaScreen, 2 h; activity, negative = inhibition: at 59 µM (top of the series) unless noted
# Outline: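 Readings reflect AlphaScreen signal from monomethyl-H3K9 antibody detection. HMT at 20 nM; substrate b-H3K9 500 nM; cofactor SAM 20 uM; 2 h RT reaction; compounds tested as titrations in qHTS with 15 min preincubation.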
# % is scaled to controls: 0 for no effect and ±100 for the full control effect; potency is read from the fitted curve at half-maximal effect; tags tell the direction and shape of the fitted curve.
# Chain of UniProt Q96KQ7 (Q96KQ7 whole entry, looked up): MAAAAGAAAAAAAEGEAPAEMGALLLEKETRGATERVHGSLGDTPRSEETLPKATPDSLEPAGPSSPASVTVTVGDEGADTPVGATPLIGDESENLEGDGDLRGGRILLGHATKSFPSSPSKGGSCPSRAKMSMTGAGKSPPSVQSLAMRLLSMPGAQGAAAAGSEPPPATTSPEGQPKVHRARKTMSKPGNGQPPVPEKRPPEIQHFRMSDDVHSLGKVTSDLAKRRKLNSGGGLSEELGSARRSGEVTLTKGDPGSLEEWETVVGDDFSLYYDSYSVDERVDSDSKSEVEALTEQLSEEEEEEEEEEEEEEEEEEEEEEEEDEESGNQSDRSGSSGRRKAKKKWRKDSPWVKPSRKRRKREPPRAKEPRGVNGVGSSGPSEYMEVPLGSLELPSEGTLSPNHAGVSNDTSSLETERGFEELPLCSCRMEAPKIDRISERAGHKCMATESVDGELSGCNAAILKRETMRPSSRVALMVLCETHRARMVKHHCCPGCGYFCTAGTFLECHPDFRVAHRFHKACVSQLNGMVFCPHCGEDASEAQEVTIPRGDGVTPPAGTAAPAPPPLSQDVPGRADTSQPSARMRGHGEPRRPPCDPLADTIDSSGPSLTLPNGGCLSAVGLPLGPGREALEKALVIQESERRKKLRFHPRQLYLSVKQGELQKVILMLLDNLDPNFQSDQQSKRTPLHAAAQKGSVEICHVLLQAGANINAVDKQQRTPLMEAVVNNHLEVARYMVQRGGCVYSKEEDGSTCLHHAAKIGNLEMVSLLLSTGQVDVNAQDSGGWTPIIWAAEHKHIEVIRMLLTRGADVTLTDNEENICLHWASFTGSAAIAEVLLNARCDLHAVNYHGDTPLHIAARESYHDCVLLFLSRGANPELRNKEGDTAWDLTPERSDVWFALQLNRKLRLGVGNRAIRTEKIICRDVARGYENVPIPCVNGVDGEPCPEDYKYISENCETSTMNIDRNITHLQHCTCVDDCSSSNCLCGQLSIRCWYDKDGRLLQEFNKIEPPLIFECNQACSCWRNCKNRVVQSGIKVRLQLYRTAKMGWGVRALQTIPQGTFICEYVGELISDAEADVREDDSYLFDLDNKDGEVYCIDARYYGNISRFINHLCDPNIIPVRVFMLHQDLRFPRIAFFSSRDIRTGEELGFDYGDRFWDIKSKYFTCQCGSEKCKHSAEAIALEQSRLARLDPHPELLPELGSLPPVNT
Structure (SMILES),Potency,"activity, negative = inhibition"
O=[N+]([O-])c1ccc2c(OCc3nnc(-c4ccccc4Br)o3)ncnc2c1,"inconclusive: 50.1 µM [inhibitor, partial curve]",–
O=C(CN1CCN(c2nc(-c3ccccc3)cs2)CC1)Nc1ccc2c(c1)OCO2,"inconclusive: 3.16 µM [inhibitor, partial curve, poor fit]",–
CCCCCCSc1cc(-c2nc3ccc(C)cn3c2NCc2ccccc2)ccc1OC,–,inactive: 13.5% [at 2.33 µM]
NC(=O)c1cc(N)ccc1N1CCCCC1,"inconclusive: 79.4 µM [inhibitor, single point]",–
COc1ccc(CNC(=O)CCCCCn2c(=O)[nH]c3ccccc3c2=O)cc1,–,inactive: -2.67%
COc1ccc(-c2noc(C(C)n3nc(C)c([N+](=O)[O-])c3C)n2)cc1OC (stereo unspecified),–,inactive: 4.46% [at 0.0925 µM]
CCOP(=O)(c1ccccc1)c1nc(-c2ccc(F)cc2)oc1N1CCCCC1 (stereo unspecified),–,inactive: 3.91%
O=S(=O)(NCC1CCCN(Cc2ccccc2O)C1)c1cccc2cccnc12 (stereo unspecified),active: 70.8 µM,–
Cc1ccc(CNc2ccc(-c3nc(-c4cccnc4)no3)cc2[N+](=O)[O-])cc1,"inconclusive: 35.5 µM [inhibitor, partial curve, poor fit]",–
Nc1nonc1-n1nnc(C(=O)N/N=C\c2cccc(Cl)c2)c1CN1CCOCC1,active: 39.8 µM,–
Cc1cccc(C)c1N1CCN(C(=O)Cn2cncn2)CC1,active: 17.8 µM,–
C=CCn1c(SCC(=O)NCC(c2ccccc2)N(C)C)nnc1C1CCCCC1 (stereo unspecified),"inconclusive: 0.708 µM [inhibitor, full curve, poor fit]",–
O=C(Nc1ccccc1)C(=O)c1cn(CC(=O)N2CCCCC2)c2ccccc12,–,inactive: -0.562%
CCc1cc(C(=O)N2CCN(c3ccccc3OC)CC2)sc1C,–,inactive: -6.28% [at 102 µM]
C=CCn1c(CSc2ccc(C)cc2)n[nH]c1=S,active: 8.91 µM,–
O=C1c2cnc3ncnn3c2CC2c3ccccc3CCN12 (stereo unspecified),"inconclusive: 79.4 µM [inhibitor, single point]",–
CC1Cc2ccccc2N1S(=O)(=O)c1cccc2nsnc12 (stereo unspecified),–,inconclusive: -66% [inhibitor]
CC(C)c1ccc(CNc2cc(N3CCCC3)ccc2[N+](=O)[O-])cc1,"inconclusive: 6.31 µM [inhibitor, single point]",–
CN(C)CCCNCCCNC(=O)/C(=N\O)c1ccccc1,active: 50.1 µM,–
COc1cc(NC(=O)Cn2c(C)cc(C)c(C#N)c2=O)cc(OC)c1,–,inactive: 12.9%
O=[N+]([O-])c1cc([N+](=O)[O-])c(Oc2c(Cl)cccc2Cl)cc1NN1CCCCC1,active: 25.1 µM,–
COc1ccc(-c2csc(N(CC(C)C)C(=O)c3ccco3)n2)cc1,–,inactive: 4.6% [at 0.501 µM]
N=C(N)n1cccn1,"inconclusive: 2.24 µM [inhibitor, partial curve, poor fit]",–
O=C(COc1ccc([N+](=O)[O-])cc1)NC(=O)NC1CCS(=O)(=O)C1 (stereo unspecified),"inconclusive: 79.4 µM [inhibitor, partial curve, poor fit]",–

Structure (SMILES),Potency,"activity, negative = inhibition"
CNc1oc(C)nc1S(=O)(=O)c1ccccc1,"inconclusive: 3.55 µM [inhibitor, partial curve, poor fit]",–
COc1ccc(/C=C/C(=O)c2c(C)cc(C)[nH]c2=O)c2ccccc12,"inconclusive: 89.1 µM [inhibitor, single point]",–
Cc1ccc(S(=O)(=O)Oc2ccccc2/C=C2\SC(=O)NC2=O)cc1,active: 50.1 µM,–
CN(C)CCN(C)Cc1ccccc1Sc1cccc2ccccc12,"inconclusive: 31.6 µM [inhibitor, single point]",–
CCCC(C(=O)NC1CCCC1)N(C(=O)Cn1nnc(-c2ccc(C)o2)n1)C1CCCC1 (stereo unspecified),active: 11.2 µM,–
COC(=O)c1c(NC(=O)c2ccc([N+](=O)[O-])o2)sc2c1CCN(C(C)C)C2,"inconclusive: 89.1 µM [inhibitor, single point]",–
Cc1cccc(N2Cc3ccccc3C2=NC(=O)c2ccc(Cl)nc2)c1,active: 11.2 µM,–
CC(C)OCCCNC(=O)CCSc1ccc(Cl)cc1,"inconclusive: 56.2 µM [inhibitor, partial curve, poor fit]",–
CC(=O)NC1=C(NC2CCS(=O)(=O)C2)C(=O)c2ccccc2C1=O (stereo unspecified),active: 1.78 µM,–
COc1ccc(-n2c(CNc3ccc(C)cc3)nnc2SCc2ccccc2)cc1,"inconclusive: 39.8 µM [inhibitor, partial curve, poor fit]",–
COc1ccc(NC(=S)Nc2ccccc2)c(OC)c1,active: 15.8 µM,–
CC1CC1C(=O)OCC(=O)Nc1cccc(F)c1 (stereo unspecified),–,inactive: 17.7% [at 2.33 µM]
Cc1ccc(Cn2c(O)c(N=NC(=S)Nc3ccccc3F)c3cc(S(=O)(=O)N4CCOCC4)ccc32)cc1,"inconclusive: 28.2 µM [inhibitor, partial curve, poor fit]",–
CCCCN(C)S(=O)(=O)c1ccc(C(=O)Nc2nnc(C3=COCCO3)o2)cc1,"inconclusive: 89.1 µM [inhibitor, single point]",–
CCCCn1c(N)c(N(CCOC)C(=O)c2ccc(S(=O)(=O)N3CCCCC3)cc2)c(=O)[nH]c1=O,–,inactive: -21.3% [at 102 µM]
Cc1ccc(C(C)C)cc1S(=O)(=O)Nc1ccncc1,"inconclusive: 56.2 µM [inhibitor, partial curve, poor fit]",–
CC1Nc2ncnc(N3CCN(c4ccccn4)CC3)c2N(Cc2ccccc2)C1=O (stereo unspecified),–,inactive: -50.5% [at 12.7 µM]
O=C(Nc1ccc(S(=O)(=O)C(F)F)cc1)c1cccc(S(=O)(=O)N2CCOCC2)c1,"inconclusive: 50.1 µM [inhibitor, partial curve]",–
CC(=O)NC(CC(=O)N(Cc1ccccc1)c1ccc(C)cc1)c1ccccc1 (stereo unspecified),"inconclusive: 17.8 µM [inhibitor, full curve]",–
COc1ccc(/C=N/Nc2ccc(C(=O)O)cc2)cc1Br,active: 35.5 µM,–
Cc1cc(C)n2nc(SCc3nnc(-c4ccccc4Br)o3)nc2n1,"inconclusive: 89.1 µM [inhibitor, partial curve, poor fit]",–
Fc1ccccc1COc1ccc(C(=S)N2CCCC2)cc1,"inconclusive: 7.08 µM [inhibitor, full curve]",–
CCN(CC(=O)Nc1cccc(OC)c1)CC(=O)Nc1ccc(C)cc1Cl,"inconclusive: 50.1 µM [inhibitor, partial curve]",–
O=C(NS(=O)(=O)Nc1ccc(Br)cn1)c1c[nH]c2ccccc12,"inconclusive: 89.1 µM [inhibitor, single point]",–

Structure (SMILES),Potency,"activity, negative = inhibition"
O=C(c1ccccc1Cl)n1nc(-c2ccco2)nc1NCc1cccs1,–,inactive: -31.1%
COc1ccc(-c2[nH]c(-c3ccc(Cl)cc3)nc2SCC(=O)Nc2nccs2)cc1,"inconclusive: 79.4 µM [inhibitor, partial curve, poor fit]",–
COC(=O)c1ccc(C23CC4(C2)[C@H](CN(Cc2ccc(-c5ccccc5)cc2)[C@@H]4c2ccccc2)C3c2ccc(C(F)(F)F)cc2)cc1 (stereo partly specified),"inconclusive: 12.6 µM [inhibitor, single point]",–
CCN(CC)c1ccc(/C=C(\C#N)c2ccccn2)cc1,–,inactive: 21%
CC(C)c1ccc(N(C(=O)c2csnn2)C(C(=O)NC2CCCC2)c2ccncc2)cc1 (stereo unspecified),–,inactive: -16.1% [at 102 µM]
CCOc1cc(S(=O)(=O)NCc2ccccn2)c(C)cc1C,"inconclusive: 70.8 µM [inhibitor, single point]",–
Cc1ccc(NC(=O)CN(C)CC(=O)Nc2ccc(N3CCOCC3)cc2)cc1F,–,inactive: -143%
CN(C)C(=O)CSc1cccc2cccnc12,"inconclusive: 22.4 µM [inhibitor, single point]",–
COc1cccc(C(=O)Nc2cc3c(cc2N2CCOCC2)n(C)c(=O)n3C)c1,active: 20 µM,–
Nc1ccc(N=Nc2ccccc2Cl)c(N)n1,active: 28.2 µM,–
COC(=O)c1ccc(CSc2nc3ccc(Cl)cc3[nH]2)o1,"inconclusive: 25.1 µM [inhibitor, single point]",–
C=CCn1cc(C(=O)N2CCc3ccccc3C2)c(=O)c2cc(S(=O)(=O)N(CC)CC)ccc21,"inconclusive: 79.4 µM [inhibitor, single point]",–
CCOc1ccc(N=CC2=C(O)CC(c3ccco3)CC2=O)cc1 (stereo unspecified),–,inactive: 3.87%
O=C1CCNc2cc3ccccc3cc21,"inconclusive: 1.58 µM [inhibitor, partial curve, poor fit]",–
C(=N\c1nc2ccccc2n1CCN1CCOCC1)/c1cccs1,"inconclusive: 50.1 µM [inhibitor, partial curve]",–
CCOC(=O)c1ccc(CN(Cc2ccc(F)cc2)S(=O)(=O)c2ccc(F)c(C(=O)Nc3cc(Cl)ccc3OC)c2)cc1,–,inactive: -5.72%
O=C(C[n+]1cc(-c2ccc(F)cc2)n2c1CCC2)c1cccs1,"inconclusive: 89.1 µM [inhibitor, partial curve, poor fit]",–
COc1ccccc1NC(=O)c1ccc(NS(=O)(=O)c2c(C)noc2C)cc1,"inconclusive: 79.4 µM [inhibitor, single point]",–
Cc1ccc(C)c(NC(=O)CSc2nc3nc(-c4cccs4)cc(C(F)(F)F)c3c(=O)[nH]2)c1,–,inconclusive: -51.8% [inhibitor]
COc1ccc(Cc2nc(-c3ccc(Br)o3)no2)cc1OC,active: 50.1 µM,–
Cn1c(CN2CCOCC2)c(C#N)c2ccccc21,active: 31.6 µM,–
CC(=O)N(C)c1ccc(N=C2C(=O)Nc3ccccc32)cc1,–,inactive: 20.9% [at 102 µM]
COC(=O)[C@H](CCCN=C(N)N)NC(=O)CCCc1c(-c2ccccc2)[nH]c2c(F)cc(F)cc12,"inconclusive: 7.94 µM [inhibitor, full curve]",–
